# From the supplement of paper PMC8728848
# This is one part of the list.
# B1: EPL1 (Trichoderma atroviride), A0PCX2 (protein)
# chain: MQLSNLFKLALFTAAVSADTVSYDTGYDDASRSLTVVSCSDGTNGLITRYHWQTQGQIPRFPYIGGAQAVAGWNSPNCGTCWKLTYSGKTIYVLAIDHTAAGFNIGLDAMNALTNGNAVALGRVSATASQVAVSNCGL
# Experiments:
# Assay in all cases: glycan array binding signal (z-score within array); higher = stronger binding
# Conditions in all cases: glycan notation: IUPAC condensed, linker removed
# [1] = molecular target: Neu5Ac(a2-3)Gal(b1-4)GlcNAc(b1-3)[Neu5Ac(a2-3)Gal(b1-4)GlcNAc(b1-6)]GalNAc
# How it was run: (§1)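 Arrays were curated from the Consortium for Functional Glycomics database, 3228 in total, and kept only where the protein sequence was available. Binding is expressed as a within-array Z-score. This score was averaged across arrays of the same protein sequence at different concentrations or buffers and across linkers, and negative values can be read as non-binding.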
# [2] = molecular target: Neu5Ac(a2-3)Gal(b1-4)GlcNAc(b1-6)GalNAc
# How it was run: as §1
# [3] = molecular target: Neu5Ac(a2-3)Gal(b1-4)GlcNAc(b1-6)[Gal(b1-3)]GalNAc
# How it was run: as §1
# [4] = molecular target: Neu5Ac(a2-3)Gal(b1-4)GlcNAc(b1-6)[Neu5Ac(a2-3)Gal(b1-3)]GalNAc
# How it was run: as §1
# [5] = molecular target: Neu5Ac(a2-3)Gal(b1-4)GlcNAc6S
# How it was run: as §1
# [6] = molecular target: Neu5Ac(a2-3)Gal(b1-4)[Fuc(a1-3)]GlcNAc
# How it was run: as §1
# [7] = molecular target: Neu5Ac(a2-3)Gal(b1-4)[Fuc(a1-3)]GlcNAc(b1-2)Man
# How it was run: as §1
# [8] = molecular target: Neu5Ac(a2-3)Gal(b1-4)[Fuc(a1-3)]GlcNAc(b1-3)Gal
# How it was run: as §1
# [9] = molecular target: Neu5Ac(a2-3)Gal(b1-4)[Fuc(a1-3)]GlcNAc(b1-3)Gal(b1-4)GlcNAc
# How it was run: as §1
# [10] = molecular target: Neu5Ac(a2-3)Gal(b1-4)[Fuc(a1-3)]GlcNAc(b1-3)Gal(b1-4)[Fuc(a1-3)]GlcNAc(b1-3)Gal(b1-4)[Fuc(a1-3)]GlcNAc
# How it was run: as §1
# [11] = molecular target: Neu5Ac(a2-3)Gal(b1-4)[Fuc(a1-3)]GlcNAc(b1-3)GalNAc
# How it was run: as §1
# [12] = molecular target: Neu5Ac(a2-3)Gal(b1-4)[Fuc(a1-3)]GlcNAc(b1-6)[Gal(b1-3)]GalNAc
# How it was run: as §1
# [13] = molecular target: Neu5Ac(a2-3)Gal(b1-4)[Fuc(a1-3)]GlcNAc(b1-6)[Neu5Ac(a2-3)Gal(b1-3)]GalNAc
# How it was run: as §1
# [14] = molecular target: Neu5Ac(a2-3)Gal(b1-4)[Fuc(a1-3)]GlcNAc6S
# How it was run: as §1
# [15] = molecular target: Neu5Ac(a2-3)Gal6S(b1-4)GlcNAc
# How it was run: as §1
# [16] = molecular target: Neu5Ac(a2-3)Gal6S(b1-4)[Fuc(a1-3)]GlcNAc
# How it was run: as §1
# Neu5Ac(a2-3)GalNAc = molecular target: Neu5Ac(a2-3)GalNAc
# How it was run: as §1
# [17] = molecular target: Neu5Ac(a2-3)GalNAc(b1-4)GlcNAc
# How it was run: as §1
# [18] = molecular target: Neu5Ac(a2-3)[GalNAc(b1-4)]Gal(b1-4)Glc
# How it was run: as §1
# [19] = molecular target: Neu5Ac(a2-3)[GalNAc(b1-4)]Gal(b1-4)GlcNAc
# How it was run: as §1
# [20] = molecular target: Neu5Ac(a2-3)[GalNAc(b1-4)]Gal(b1-4)GlcNAc(b1-3)GalNAc
# How it was run: as §1
# [21] = molecular target: Neu5Ac(a2-3)[Neu5Ac(a2-6)]GalNAc
# How it was run: as §1
# Neu5Ac(a2-6)Gal = molecular target: Neu5Ac(a2-6)Gal
# How it was run: as §1
# [22] = molecular target: Neu5Ac(a2-6)Gal(b1-3)GlcNAc(b1-3)[Gal(b1-4)GlcNAc(b1-6)]Gal(b1-4)Glc
# How it was run: as §1
# Neu5Ac(a2-6)Gal(b1-4)Glc = molecular target: Neu5Ac(a2-6)Gal(b1-4)Glc
# How it was run: as §1
# [23] = molecular target: Neu5Ac(a2-6)Gal(b1-4)GlcNAc
# How it was run: as §1
# [24] = molecular target: Neu5Ac(a2-6)Gal(b1-4)GlcNAc(b1-2)Man
# How it was run: as §1
# [25] = molecular target: Neu5Ac(a2-6)Gal(b1-4)GlcNAc(b1-2)Man(a1-3)Man(b1-4)GlcNAc(b1-4)GlcNAc
# How it was run: as §1
# [26] = molecular target: Neu5Ac(a2-6)Gal(b1-4)GlcNAc(b1-2)Man(a1-3)[Gal(b1-4)GlcNAc(b1-2)Man(a1-6)]Man(b1-4)GlcNAc(b1-4)GlcNAc
# How it was run: as §1
# [27] = molecular target: Neu5Ac(a2-6)Gal(b1-4)GlcNAc(b1-2)Man(a1-3)[GlcNAc(b1-2)Man(a1-6)]Man(b1-4)GlcNAc(b1-4)GlcNAc
# How it was run: as §1
# [28] = molecular target: Neu5Ac(a2-6)Gal(b1-4)GlcNAc(b1-2)Man(a1-3)[GlcNAc(b1-4)][Neu5Ac(a2-6)Gal(b1-4)GlcNAc(b1-2)Man(a1-6)]Man(b1-4)GlcNAc(b1-4)GlcNAc
# How it was run: as §1
binder,measurement,setting,value
B1,glycan array binding signal (z-score),[1],-0.13
same,glycan array binding signal (z-score),[2],-0.334
same,glycan array binding signal (z-score),[3],-0.154
same,glycan array binding signal (z-score),[4],-0.379
same,glycan array binding signal (z-score),[5],-0.025
same,glycan array binding signal (z-score),[6],-0.138
same,glycan array binding signal (z-score),[7],-0.347
same,glycan array binding signal (z-score),[8],0.114
same,glycan array binding signal (z-score),[9],0.07
same,glycan array binding signal (z-score),[10],0.732
same,glycan array binding signal (z-score),[11],1.06
same,glycan array binding signal (z-score),[12],0.433
same,glycan array binding signal (z-score),[13],0.767
same,glycan array binding signal (z-score),[14],-0.326
same,glycan array binding signal (z-score),[15],0.075
same,glycan array binding signal (z-score),[16],0.014
same,glycan array binding signal (z-score),Neu5Ac(a2-3)GalNAc,-0.216
same,glycan array binding signal (z-score),[17],-0.428
same,glycan array binding signal (z-score),[18],0.036
same,glycan array binding signal (z-score),[19],-0.119
same,glycan array binding signal (z-score),[20],0.029
same,glycan array binding signal (z-score),[21],0.537
same,glycan array binding signal (z-score),Neu5Ac(a2-6)Gal,-0.387
same,glycan array binding signal (z-score),[22],-0.314
same,glycan array binding signal (z-score),Neu5Ac(a2-6)Gal(b1-4)Glc,-0.183
same,glycan array binding signal (z-score),[23],-0.313
same,glycan array binding signal (z-score),[24],-0.472
same,glycan array binding signal (z-score),[25],0.209
same,glycan array binding signal (z-score),[26],-0.597
same,glycan array binding signal (z-score),[27],-0.298
same,glycan array binding signal (z-score),[28],-0.464
